Data as given in PubChem BioAssay AID1634 (National Center for Advancing Translational Sciences (NCATS), 2009).
Among all 260,000 compounds or so, about 150 (0.058%) were called active. This list was built around the results that the source calls inconclusive (neither active nor inactive); the mix of calls is not that of the screen. Calls come from the whole dose curve; as a rule, active = well fitted inhibition curve with a large enough effect; inconclusive = small, poorly fitted or top-dose-only effect; inactive = no such curve, though single readings can be large or run the other way. Potencies beside an inconclusive call are fits to weak or partial responses and may not hold up.

Molecular target: Pyruvate kinase PKM (Homo sapiens) (UniProt P14618)
Experiment: qHTS Assay for Inhibitors of Human Muscle isoform 2 Pyruvate Kinase; note: nearly all actives have a fitted effect of over 60% in size
Details: purified PKM2, ATP generation, Kinase-Glo luminescence; series mostly up to 57.5 µM
Experimental: NIH Chemical Genomics Center [NCGC] Matthew G. Vander Heiden, M.D., Ph.D. [Harvard Medical School, 77 Avenue Louis Pasteur, Boston, MA 02115] […] ATP generation was detected in a coupled reaction by luciferase-mediated luminescence, an ATP-dependent process. […] The enzyme was assayed at an intermediate level of activity to screen for both inhibitors and activators.
NCGC Assay Protocol Summary: Three uL of substrate mix (at r.t.) in assay buffer (50 mM Imidazole pH7.2, 50 mM KCl, 7 mM MgCl2, 0.01% Tween 20, 0.05% BSA) was dispensed into white solid bottom 1,536 well microtiter plates so that the final concentrations of substrates in the assay were 0.1 mM ADP and 0.5 mM PEP. 23 nL of compound were delivered by a pin tool and 1 uL of enzyme mix in assay buffer (4 degree Celsius) was added. Plates were incubated at room temperature for 1 hour. Two uL of detection mix (Kinase-Glo, Promega; at 4 degree Celsius protected from light) was added and luminescence read by a ViewLux (Perkin Elmer) at 5 second exposure/plate. Data were normalized to the uninhibited and AC100 inhibition (no enzyme). To monitor activation, the first column contained a titration of the activator, NCGC00031955-01 (16-point 1:2 dilutions in duplicate starting at 57 uM) and the first 16 rows of column 4 contained 57 uM of NCGC00031955-01.
Potency is the fitted concentration of half-maximal effect; tags give direction and shape of the fitted curve.

Sequence of UniProt P14618 (P14618 whole entry, looked up, canonical isoform): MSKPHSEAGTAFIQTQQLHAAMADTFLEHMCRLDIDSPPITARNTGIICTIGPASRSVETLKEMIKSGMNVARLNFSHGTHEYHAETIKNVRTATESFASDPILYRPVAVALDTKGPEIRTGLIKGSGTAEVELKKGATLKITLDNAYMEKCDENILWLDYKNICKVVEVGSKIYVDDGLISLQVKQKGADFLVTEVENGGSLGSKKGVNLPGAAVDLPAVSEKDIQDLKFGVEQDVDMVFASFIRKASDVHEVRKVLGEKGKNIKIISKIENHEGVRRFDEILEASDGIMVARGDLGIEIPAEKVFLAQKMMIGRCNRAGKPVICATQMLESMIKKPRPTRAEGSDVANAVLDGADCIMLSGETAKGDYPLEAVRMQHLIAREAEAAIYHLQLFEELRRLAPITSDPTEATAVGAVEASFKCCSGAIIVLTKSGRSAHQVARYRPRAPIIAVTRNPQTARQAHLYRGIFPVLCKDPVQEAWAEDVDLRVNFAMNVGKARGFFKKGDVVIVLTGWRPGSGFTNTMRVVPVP

Potency, active:
Fc1ccccc1-c1nc2ccccc2[nH]1 31.6 µM
COc1ccc(-c2cn3ccc(C)cc3n2)cc1 12.6 µM

Potency, inactive:
Cn1cc(SCC(=O)Nc2nccs2)c2ccccc21
COC(=O)Cc1ccc(NC(=S)Nc2ccccn2)cc1
Nc1c(S(=O)(=O)c2cccc(Cl)c2)c2nc3ccccc3nc2n1/N=C/c1ccc(O)c(O)c1
CC(=O)c1c(C)[nH]c(C(=O)Nc2ccc(C)cc2Br)c1C
NS(=O)(=O)c1cccc(NC(=O)CCS(=O)(=O)c2ccc(Cl)cc2)c1
CCCN1CCN(S(=O)(=O)c2ccc3c(c2)OCCO3)CC1
Cc1ccc(/C=N/NC(=O)C2(O)c3ccccc3-c3ccccc32)o1
O=C(/C=C\c1ccc(-c2ccccc2)o1)c1ccccc1
O=C(OCCOc1cccc(Cl)c1)C1CCN(S(=O)(=O)c2ccccc2)CC1
Cn1c(=O)cc(SCC(=O)N2CCN(c3ccccn3)CC2)c2ccccc21
Cc1c(C(=O)OCCOC(C)C)[nH]c2c1C(=O)CC(c1ccco1)C2 (centres undefined)
Brc1c(CSc2nncc3ccccc23)nc2ccccn12
CN(n1cnc2ccccc2c1=O)S(C)(=O)=O
COCCNC(=O)C(Cc1c[nH]c2ccccc12)NC(=O)OCc1ccccc1 (centres undefined)
CC(=O)N1N=C(c2ccccc2O)CC1c1cccs1 (centres undefined)
COc1ccc2c(c1)-c1nc(NC(=O)c3cccs3)sc1CC2
COC(=O)[C@@]1(Cc2ccc(OC)cc2)[C@H]2c3cc(C(=O)N4CCCC4)n(CCc4ccc(O)c(O)c4)c3C[C@H]2CN1C(=O)c1ccccc1
Cc1ccc(S(=O)(=O)N2CCN(Cc3cccc(C)c3O)CC2)cc1
COc1ccc(C(C)(C)C)cc1NC(=O)c1[nH]c(C)c(C(C)=O)c1C
O=C1CC(Sc2ccc(Cl)cc2)C(=O)N1c1ccc2c(c1)OCCO2 (centres undefined)
O=C(Cc1ccccc1)Nc1cccc(N2C(=O)C=CC2=O)c1
COc1cc(NC(=S)N2CCN(S(=O)(=O)c3ccc(C)cc3)CC2)cc(OC)c1

Potency, inconclusive:
CC(C)CCC(CC(C)O)c1n[nH]c(=S)n1-c1ccccc1 (centres undefined) 22.4 µM [falling, partial curve]
Cc1cc(NC(=O)c2ccc(C#N)cc2)on1 0.708 µM [falling, full curve, poor fit]
CCOc1ccc(NC(=O)NC2CCOC(C)(C)C2)cc1 (centres undefined) 39.8 µM [falling, single point]
CN(C)c1ccc(-c2ccccc2)nn1 25.1 µM [falling, single point]
CN(CC(=O)NCCc1ccccc1)S(=O)(=O)c1ccccc1 39.8 µM [falling, single point]
CC[N+](C)(CC)CCC(c1ccccc1)C1CCCCC1 (centres undefined) 39.8 µM [falling, single point]
Cc1[nH]c(=O)c(C(=O)c2cc(Cl)ccc2O)cc1C(=O)O 6.31 µM [falling, full curve, poor fit]
O=C(c1ccco1)N1CCN(CCOc2ccccc2)CC1 39.8 µM [falling, single point]
COc1ccc(-c2csc(/N=C/N(C)C)n2)cc1OC 39.8 µM [falling, single point]
N#Cc1c(-c2ccccc2)c(-c2ccccc2)n(Cc2ccco2)c1NC(=O)c1cccs1 39.8 µM [falling, single point]
COc1ccc(-c2cc(C(=O)NCc3cccnc3)no2)cc1OC 3.16 µM [falling, single point]
N/C(=N\OC(=O)c1ccco1)c1ccccn1 39.8 µM [falling, single point]
CCCCn1c(N)c(N(CCOC)C(=O)COc2ccc(Cl)cc2)c(=O)[nH]c1=O 8.91 µM [falling, single point]
COc1cccc(/C=C2\CCc3ccccc3C2=O)c1 20 µM [falling, partial curve]
COc1ccc(C(=O)O/N=C(\C)c2ccccc2)cc1 15.8 µM [falling, partial curve]
Cc1ccc(C(=O)Nc2ccc3c(c2)CCC3)o1 39.8 µM [falling, single point]
COc1ccc(OC)c2sc(NC(=O)C3=COCCO3)nc12 28.2 µM [falling, partial curve, poor fit]
CCOC(=O)NC(=O)c1cn(Nc2ncc(C(F)(F)F)cc2Cl)c(=O)[nH]c1=O 39.8 µM [falling, single point]
O=c1c2c([N+](=O)[O-])cc([N+](=O)[O-])cc2sn1-c1ccc(Br)cc1 25.1 µM [falling, single point]
N/C(=N\OC(=O)c1ccc2c(c1)OCO2)c1cccc(Br)c1 15.8 µM [falling, partial curve]
Cc1ccc(/C=N/Nc2nnc(Cc3ccccc3)c(=O)[nH]2)o1 39.8 µM [falling, single point]
O=C(Nc1nc2ccccc2n1CCN1CCCC1)C1CCCCC1 28.2 µM [falling, single point]
COc1ccccc1CNC(=O)CSc1nc(C)cs1 22.4 µM [falling, single point]
O=C(Nc1ccc2c(c1)OCO2)c1cccc2c1C(=O)N(C1CCCCC1)C2 20 µM [falling, single point]
COc1cc(C(=O)Nc2ccc(C(=O)O)cc2)ccc1OC(C)=O 14.1 µM [falling, partial curve]
CN(C)S(=O)(=O)c1cccc(NC(=O)CSc2nncn2-c2ccccc2)c1 39.8 µM [falling, single point]
CCOC(=O)Cn1nc(C)c(NC(=O)CCc2ccc(OC)cc2)c1C 39.8 µM [falling, single point]
CC(C(=O)N(C)Cc1ccccc1)N1CCN(C/C=C/c2ccccc2)CC1 (centres undefined) 35.5 µM [falling, single point]
Cc1ccc(C(=O)CCC(=O)Nc2ccccc2F)cc1 25.1 µM [falling, single point]
Cc1csc(NC(=O)c2ccoc2C)n1 20 µM [falling, partial curve]
O=C(CCc1nnc(-c2ccc(-c3ccccc3)cc2)o1)N1CCCCC1 7.08 µM [falling, single point]
COc1ccc(C(=O)N2CC3(C)C4CCC3(C)C2(C#N)C4)cc1OC (centres undefined) 8.91 µM [falling, single point]
O=C(CN(CCc1ccccc1)S(=O)(=O)c1ccc(Cl)cc1)N/N=C/c1ccccc1C(=O)O 39.8 µM [falling, single point]
CC[n+]1c(C)sc2sc3ccccc3c21 39.8 µM [falling, single point]
CCCCn1ccnc1C(=O)c1ccc(S(=O)(=O)N(CCOC)CCOC)cc1 0.562 µM [falling, full curve, poor fit]
Cc1cc(C(=O)Nc2nc3c(s2)CCCC3)no1 39.8 µM [falling, single point]
CCOc1ccc(N/C=C/C(=O)c2ccccc2)cc1 10 µM [falling, partial curve]
O=C(C1CC1)N1CCc2cc(S(=O)(=O)NC3CCN(Cc4ccccc4)CC3)ccc21 28.2 µM [falling, partial curve]
Cc1cc(C)n(Cc2ccc(Cl)c(Cl)c2)c(=O)c1S(=O)(=O)c1ccccc1 0.708 µM [falling, single point]
Cc1ccc(S(=O)(=O)N2CCCCC2)cc1NC(=O)COc1ccccc1F 3.98 µM [falling, single point]
O=C(N/N=C/c1cccs1)c1[nH]ncc1Br 20 µM [falling, partial curve]
COCCOC(=O)c1c(C)oc2ccc(NS(=O)(=O)c3ccccc3)cc12 0.126 µM [falling, full curve, poor fit]
Cc1ccc(/C=N/NC(=O)c2cc(C)oc2C)cc1 20 µM [falling, single point]
CN(C1CC(C)(C)N(O)C(C)(C)C1)S(=O)(=O)CC12CCC(CC1=O)C2(C)C (centres undefined) 3.98 µM [falling, full curve, poor fit]
COc1ccc(/C=N/NC(=O)c2nonc2C)cc1 14.1 µM [falling, partial curve]
CCc1n[n+](CC(=O)c2ccccc2)c(N)s1 15.8 µM [falling, partial curve]
O=C(Nc1nccs1)C1CCN(S(=O)(=O)c2cccs2)CC1 39.8 µM [falling, single point]
COc1cccc(NC(=O)NCCC2=CCCCC2)c1 39.8 µM [falling, single point]
COc1ccc(NC(=O)c2cnn(-c3ccccc3)c2C)cc1 15.8 µM [falling, partial curve]
O=C(NCCCCCNC(=O)c1ccco1)c1ccco1 1.78 µM [falling, partial curve, poor fit]
